# Assay results as given in article PMC10668032.
# Some of the results follow. At the low end of the ranking, values are background and their order means little.
# Molecular target: SIX1 homeodomain (reference allele) (UniProt Q15475)
# Assay: universal protein binding microarray
# Conditions: Universal all-10-mer PBM (8x60K, AMADID 030236), 300 nM GST-tagged protein, Alexa Fluor 488 anti-GST; buffer, salt, pH and temperature not stated; high values mean tight binding; most listed sequences are background and not binding sites; double strand, one strand shown
row,Sequence,binding signal [E-score]
1,CCATCCGA,0.218
2,ACCGACAC,0.286
3,CATGGATA,0.3
4,GGTCCAAC,-0.0688
5,AGGACACC,0.366
6,TCCAACGA,-0.123
7,CAGAACTA,-0.0307
8,ACCCCTTC,0.131
9,GGTCCCAC,-0.126
10,CTGCCCTA,0.02
11,CCCCAAGC,0.14
12,AAGGGCGA,-0.243
13,CAATCTCA,0.0472
14,CCTCTCAA,0.0299
15,AACTACAA,-0.0356
16,CCCCTACA,0.00857
17,TGGGTCAA,-0.0742
18,AAAAGACA,-0.0208
19,GACGACTA,-0.169
20,GTGAGAAA,-0.17
21,AACAAGAA,-0.0806
22,ACATAGAC,-0.034

row,Sequence,binding signal [E-score]
1,CTCGGCAC,-0.0169
2,GCGTCCCA,-0.29
3,CCTCCTAC,-0.132
4,CACCGAAC,-0.00985
5,AGGGTATC,0.491
6,CGTGACGC,-0.247
7,ATGAGCGG,-0.187
8,CATGGGGG,0.0131
9,GGCCTAAC,-0.182
10,AAGGCTCA,0.117
11,CACCAGAG,-0.0793
12,CTATCACC,0.35
13,GAAGAAGC,-0.258
14,ACTGTCGA,-0.0755
15,CCTATACC,0.311
16,ACAATGCT,-0.206
17,ATTTAGGC,-0.277
18,GCACTCGC,-0.163
19,AGTTGAAC,-0.0449
20,ACGGGTCT,-0.056
21,AACCTAGA,0.0334
22,CGAAATGA,0.054

row,Sequence,binding signal [E-score]
1,CCTTAATC,0.142
2,CTAGAGAA,0.13
3,TGCTGCCA,-0.157
4,GGGATCTA,0.272
5,CGTCGCAC,-0.108
6,AATGTACA,-0.0173
7,ATACGCAA,0.204
8,CCTGTCCC,-0.119
9,AAGCGAAG,-0.13
10,GCGTGACA,-0.0699
11,CTTCGACC,-0.0657
12,CATCTGGC,0.0814
13,ACACTCAG,0.0704
14,AATGAGTG,-0.108
15,AAAATGAT,0.187
16,GACACCAA,0.364
17,ATCATGAG,0.23
18,GGCTCGAA,0.0525
19,CAATGTCG,-0.162
20,CCTTCGCC,-0.0012
21,ACTTGAGC,-0.187
22,CCTCGTAG,-0.0794

row,Sequence,binding signal [E-score]
1,CACGGTTC,-0.257
2,GCCCGTTA,-0.167
3,CAATAGTC,-0.222
4,ATGGTGGA,0.0594
5,CTCCGCGC,-0.0249
6,AGAGGCCC,-0.201
7,GGTCGAAC,0.00664
8,CCTTGGTA,0.0895
9,CAACACGA,0.015
10,TGGCCGAA,-0.191
11,AGTTCGGC,-0.246
12,CCCATCTC,0.292
13,CCAAGGCG,-0.146
14,CCGGCGGA,0.24
15,TCAACAAA,0.045
16,AAGTGTAT,0.114
17,CTAGCGAG,0.0372
18,CCTTTAGA,-0.042
19,CGGTGAGC,-0.0912
20,ACCGTGAG,0.0515
